# Test results published in PubChem BioAssay AID485344 (National Center for Advancing Translational Sciences (NCATS), 2010).
# The whole screen tested about 340,000 compounds, of which about 6,900 (2%) were called active. Cut-off read from the data, not from the text of the source: active = inhibition above about 30%; inactive = below that, where a call was filed. Only a part is listed here, and it is no random draw. The source gives no active or inactive call for entries shown without one.
# Biological target: D(2) dopamine receptor (Homo sapiens) (UniProt P14416)
# Assay: HTS Assay for Allosteric Antagonists of the Human D2 Dopamine Receptor: Primary Screen for Antagonists; note: 0% is about no effect
# Conditions: HEK293 TREx D2 cells, calcium flux, dopamine EC80; at 10 µM; stronger effect = higher value
# Summary of the method: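 Inhibition of EC80 dopamine-driven calcium flux, recorded kinetically, defines activity here; cells are a tetracycline-induced HEK293 T-REx line expressing force-coupled D2.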
# UniProt P14416, sequence (P14416 whole entry, looked up): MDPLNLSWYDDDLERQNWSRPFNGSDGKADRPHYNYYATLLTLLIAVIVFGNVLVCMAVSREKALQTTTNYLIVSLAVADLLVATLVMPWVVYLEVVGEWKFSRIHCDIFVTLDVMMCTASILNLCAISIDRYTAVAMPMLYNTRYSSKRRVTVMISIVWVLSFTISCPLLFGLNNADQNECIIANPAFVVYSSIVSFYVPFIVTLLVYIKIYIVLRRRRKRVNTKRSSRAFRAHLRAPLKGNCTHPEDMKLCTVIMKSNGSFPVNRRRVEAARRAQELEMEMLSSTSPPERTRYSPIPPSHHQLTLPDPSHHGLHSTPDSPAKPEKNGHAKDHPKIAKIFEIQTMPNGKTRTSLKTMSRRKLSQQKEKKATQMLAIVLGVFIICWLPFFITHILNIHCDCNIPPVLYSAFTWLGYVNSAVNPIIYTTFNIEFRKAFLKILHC
row,SMILES,inhibition
1,Cc1ccc(-c2nc(N3CCN(c4ccccc4Cl)CC3)c3ccccc3n2)cc1,11.6%
2,CCOc1ccc(NC(=O)C(NC(=O)C2CCC(C)CC2)C(C)C)cc1 (stereo unspecified),21.6%
3,CN(C)CCCNc1oc(-c2ccccc2Cl)nc1S(=O)(=O)c1ccccc1,active: 86%
4,CCOC(=O)c1cc(-c2ccccc2)n(CC(=O)N(C)c2ccc(OC)cc2)c1C,2.93%
5,COc1ccc(CNCC2COc3ccccc3O2)cc1 (stereo unspecified),active: 140%
6,CCCCN(CCCC)CC(O)Cn1cc(/C=C/C(=O)c2ccccc2)c2ccccc21 (stereo unspecified),12.1%
7,O=c1c(=O)n(-c2cccc(Cl)c2)ccn1Cc1cccc(F)c1,1.33%
8,COc1cccc2c1cc1c(=O)n(CC(=O)NC3CC3)nc(C)n12,13.3%
9,COc1cccc(-c2nc(CSCC(=O)NCCc3ccc(Cl)cc3)c(C)o2)c1,4.42%
10,COCCNC(=O)CCCN1C(=O)c2ccccc2Sc2ncccc21,-6.28%
11,Cc1ccc(NC(=O)c2oc3ccc(S(=O)(=O)N(C)C4CCCCC4)cc3c2C)cc1Cl,27.7%
12,COc1ccc(-c2nc(CSCC(=O)N3CCN(c4ccc(OC)cc4)CC3)c(C)o2)cc1,-18.1%
13,O=S(=O)(c1cccc(F)c1)N1CCC(c2nc3ccccc3s2)CC1,-20.6%
14,CCS(=O)(=O)N1CC(=O)N(c2cccc(Cl)c2C)C(C)(C(=O)NC2CCCCC2)C1 (stereo unspecified),-12.1%
15,CN(C)CCCn1c(SCC(=O)Nc2sc3c(c2C#N)CCCC3)nnc1-c1ccncc1,active: 39.1%
16,CCN(CCCNC(=O)c1cc2cc3ccc(C)cc3nc2s1)c1ccccc1,-27.9%
17,CCCN(c1ccccc1CC)S(=O)(=O)c1ccc2c(c1)CC(C)N2C(=O)C1CC1 (stereo unspecified),-6.75%
18,CCOC(=O)C1CCC(CN(Cc2ccc(Cl)cc2)S(=O)(=O)c2ccc(Br)cc2)CC1 (stereo unspecified),-10.4%
19,CN1C(=O)C2(SCC(=O)N2c2cccc(C(F)(F)F)c2)c2ccccc21 (stereo unspecified),-7.76%
20,COc1ccc(-c2onc(C)c2C)cc1S(=O)(=O)N(C)Cc1ccco1,2.25%
21,CCOC(=O)C1CCN(CC(=O)N2CCCc3c2c(=O)oc2ccc(OCc4ccccc4)cc32)CC1,-5.62%

row,SMILES,inhibition
1,CCS(=O)(=O)N1CCc2cc(C(=O)NCCc3ccccc3)ccc21,-6.3%
2,CCCN1CCN(CCNC(=O)Nc2ccc(OC)c(OC)c2)CC1,-18.8%
3,CCOc1ccc(NC(=O)c2cn(C)c(=O)c3cc(OC)c(OC)cc23)cc1,-10.5%
4,COc1ccc(CCNc2ncnc3c2cnn3-c2cccc(Cl)c2)cc1,-14.5%
5,Cc1cc(C)n(CCc2nc3c4ccccc4nc(N4CCN(c5ccccc5F)CC4)n3n2)n1,10.7%
6,C#CC(C)(CC)NC(=O)c1cnn2c(C(F)F)cc(-c3ccccc3OC)nc12 (stereo unspecified),-12.7%
7,Cc1ccc(NC(=O)/C(C#N)=C/c2ccc(C)o2)cc1,-1.14%
8,Cc1ccc(Cn2ccnc2SCC(=O)NCc2ccc(F)cc2)cc1,-3.68%
9,COc1ccc(NC(=O)CSc2nc3ccccc3n2CC(=O)N(C)c2ccc(F)cc2)cc1,1.88%
10,COc1ccc(OCCCCn2c(C3CC(=O)N(c4cccc(Cl)c4)C3)nc3ccccc32)cc1 (stereo unspecified),-14.9%
11,COCCNC(=S)N/N=C(\C)c1ccc(C)c([N+](=O)[O-])c1,active: 32.3%
12,Cc1ccc(Cl)cc1NC(=O)CSC1=Nc2ccccc2C2=NC(Cc3ccccc3)C(=O)N12 (stereo unspecified),3.76%
13,CC1(C)CC(=O)c2cc(-c3nc(-c4ccc(Cl)cc4)cs3)c(=O)n(-c3ccc(Cl)cc3)c2C1,1.13%
14,COc1ccc(NC(=O)Cn2nc(-c3ccncc3)ccc2=O)cc1Cl,-13.2%
15,Cc1ccc(Nc2nc(C)cc(C)n2)c(C(=O)O)c1,-14.7%
16,CCc1ccc(NC(=O)CN2C(=O)C3(SCC(=O)N3c3ccccc3)c3ccccc32)cc1 (stereo unspecified),-12.1%
17,Cc1ccc[n+](C(C)C(=O)Nc2ccc(C)c([N+](=O)[O-])c2)c1 (stereo unspecified),active: 42.8%
18,COCCCNC(=O)CSc1c2c(nc3ccc(Cl)cc13)CCCC2,10.9%
19,CCN(c1ccc(OC)cc1)S(=O)(=O)c1nnc(NC(=O)c2ccccc2Cl)s1,11.4%
20,CCOc1ccc(C2c3c(oc4ccc(C)cc4c3=O)C(=O)N2Cc2ccc3c(c2)OCO3)cc1OC (stereo unspecified),-2.92%
21,Cn1c(=O)oc2cc(S(=O)(=O)NCCN3CCN(c4ccccc4F)CC3)ccc21,active: 76.5%

row,SMILES,inhibition
1,O=c1cc(-c2ccccc2)oc2cc(OCc3ccccc3)cc(O)c12,active: 50.7%
2,Cc1nc(N2CCCC2)c2c(C(=O)N3CCN(c4cccc(Cl)c4)CC3)c(C)oc2n1,5.02%
3,C=Cc1ccc(CSc2nc(-c3ccccc3Cl)nc3c2Cc2c(CO)cnc(C)c2O3)cc1,0.277%
4,CN(C)CCNC(=O)CCCN1C(=O)c2cccnc2Oc2ccc(Cl)cc21,6.51%
5,O=C1CC(c2nc3ccccc3n2CCCOc2ccccc2)CN1c1ccc(F)cc1 (stereo unspecified),7.43%
6,Cc1cc(C)cc(-n2ccn(CC(=O)Nc3ccccc3C(F)(F)F)c(=O)c2=O)c1,-4.24%
7,CCN(c1ccccc1)c1nnc(NC(=O)Nc2cccc(Br)c2)s1,0.668%
8,Cc1ccc(N2CC(C)Cn3c2nc2c3c(=O)n(CC(=O)O)c(=O)n2C)cc1 (stereo unspecified),-3.17%
9,CSc1nc2sc3c(c2c(=O)n1-c1ccccc1C)CCCC3,-1.11%
10,Cc1ccc(NS(=O)(=O)c2ccc3[nH]c4c(c3c2)CCCCCC4)cc1Cl,-10.8%
11,CCOC(=O)c1sc(NC(=O)c2cc(CC)on2)c(C(=O)OCC)c1C,-20.5%
12,COCC(=O)N1c2nc(C(C)C)nn2C2(CCCCC2)[C@@H]2CCCC[C@@H]21,-2.06%
13,Cc1c(C(=O)NCc2ccccc2)sc2nc3n(c(=O)c12)CCC3,12.3%
14,COc1ccc(-c2cc(C3CCN(Cc4cccc(C(F)(F)F)c4)CC3)[nH]n2)cc1,active: 59.2%
15,CC(C)c1ccc(NC(=O)CN2C(=O)COc3ccc(S(=O)(=O)Nc4ccccc4)cc32)cc1,-1.49%
16,O=[N+]([O-])c1cc(-c2nc(-c3cccnc3)no2)ccc1NCc1ccccc1,14.9%
17,CC(C)OCCCNC(=O)CCCn1c(SCC(=O)c2ccc(F)cc2)nc2c(sc3ccccc32)c1=O,-4.56%
18,O=C(Nc1ccc(Br)cc1)C1CCN(S(=O)(=O)c2cccc3nsnc23)CC1,24.1%
19,COc1ccc(-c2nn3c(=O)cc(CN4CCN(C(=O)Nc5ccc(C)c(Cl)c5)CC4)nc3s2)cc1,-19.3%
